Experimental data reported in patent USRE50631E1, “ROR1 antibody immunoconjugates” (VelosBio Inc., priority 2017, dated 2025).

B1: ADC-M: Ab1 conjugated via MAL-Phe-C4-VC-PAB to MMAE (conjugate)
heavy: QVQLQESGPGLVKPSQTLSLTCTVSGYAFTAYNIHWVRQAPGQGLEWMGSFDPYDGGSSYNQKFKDRLTISKDTSKNQVVLTMTNMDPVDTATYYCARGWYYFDYWGHGTLVTVSS[skipping human IgG1 constant region]
light: DIVMTQTPLSLPVTPGEPASISCRASKSISKYLAWYQQKPGQAPRLLIYSGSTLQSGIPPRFSGSGYGTDFTLTINNIESEDAAYYFCQQHDESPYTFGEGTKVEIKRTVAAPSVFIFPPSDEQLKSGTASVVCLLNNFYPREAKVQWKVDNALQSGNSQESVTEQDSKDSTYSLSSTLTLSKADYEKHKVYACEVTHQGLSSPVTKSFNRGEC
B2: ADC-P: Ab1 conjugated via MAL-Phe-C4-VC-PAB-DMEA to PNU-159682 (conjugate)
heavy: B1 heavy
light: B1 light
B3: ADC-L: Ab1 conjugated via MAL-DPR-VC-PAB to MMAE (conjugate)
heavy: B1 heavy
light: B1 light
modifications: non-natural residues
B4: ADC-R (conjugate)
heavy: B1 heavy
light: B1 light
B5: ADC-O: Ab1 conjugated via MAL-C2-Gly3-EDA to PNU-159682 (conjugate)
heavy: B1 heavy
light: B1 light
B6: ADC-H (conjugate)
heavy: B1 heavy
light: B1 light

What follows are molecules tested against T1, cell surface ROR1 on Jeko-1 cells (Homo sapiens, UniProt Q01973) (assay: Cell surface ROR1 expression during internalization, Jeko-1 cells). Settings: up to 4 hours.
T1 construct: The Jeko-1 cell line, from mantle cell lymphoma, is a suspension cell line; host or cells: Jeko-1 (human mantle cell lymphoma)
Format: cell-based
Procedure: Internalization of antibodies was measured using pulse-chase approaches that detected non-internalized, cell surface antibody at various time points (2, 5, 10, 15, 20, 30, 60, 120 and 240 minutes). In this study, in addition to measuring non-internalized cell surface antibody, the expression of ROR1 on the cell surface was quantitated either by (1) re-staining with Ab1 and a secondary antibody or (2) by using a second, labeled anti-ROR1 antibody that recognizes an epitope distinct from that of Ab1.
For the first approach, internalization of Ab1 on Jeko-1 cells was performed as described in Example 3 (one sample was processed at each time point to quantitate antibody remaining on the cell surface). Additionally, a second sample at each time point was rapidly re-stained using saturating levels of Ab1 (30 μg/mL) while maintaining the cells on ice. Subsequently, the cells were washed and surface antibody was quantitated using the same secondary antibody used for internalization measurements.
An alternative approach to measuring cell surface ROR1 expression in conjunction with Ab1 internalization studies was tested. Specifically, cell surface ROR1 expression was quantitated at 0, 0.5, 1, 2, and 4 hours by staining cells directly with a labeled anti-ROR1 antibody that binds an epitope distinct from that of Ab1.

T1 sequence (Q01973 30-937): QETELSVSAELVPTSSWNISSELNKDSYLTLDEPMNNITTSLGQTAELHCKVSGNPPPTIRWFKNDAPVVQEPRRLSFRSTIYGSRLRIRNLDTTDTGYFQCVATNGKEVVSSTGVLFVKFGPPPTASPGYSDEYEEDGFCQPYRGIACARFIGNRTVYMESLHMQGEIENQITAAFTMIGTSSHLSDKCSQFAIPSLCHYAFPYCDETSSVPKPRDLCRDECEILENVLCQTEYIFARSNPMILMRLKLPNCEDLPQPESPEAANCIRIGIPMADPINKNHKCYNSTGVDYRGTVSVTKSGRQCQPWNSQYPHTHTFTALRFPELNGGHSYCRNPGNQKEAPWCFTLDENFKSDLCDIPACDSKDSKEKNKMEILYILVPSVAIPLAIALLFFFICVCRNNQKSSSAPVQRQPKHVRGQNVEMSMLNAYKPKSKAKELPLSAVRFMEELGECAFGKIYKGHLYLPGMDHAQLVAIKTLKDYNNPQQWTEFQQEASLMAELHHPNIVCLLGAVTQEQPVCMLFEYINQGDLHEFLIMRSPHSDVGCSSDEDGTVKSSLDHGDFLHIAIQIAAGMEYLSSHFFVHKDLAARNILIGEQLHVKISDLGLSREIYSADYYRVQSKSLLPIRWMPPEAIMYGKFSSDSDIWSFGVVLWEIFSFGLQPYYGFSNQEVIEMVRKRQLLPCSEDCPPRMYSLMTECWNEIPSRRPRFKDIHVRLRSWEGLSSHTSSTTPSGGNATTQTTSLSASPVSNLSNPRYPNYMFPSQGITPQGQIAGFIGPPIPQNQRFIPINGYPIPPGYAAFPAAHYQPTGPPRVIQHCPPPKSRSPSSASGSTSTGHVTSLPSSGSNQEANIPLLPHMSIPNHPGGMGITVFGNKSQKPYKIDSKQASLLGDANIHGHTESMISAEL

Row | Molecule | cell surface ROR1 expression during treatment
1 | B1 | ROR1 expression was maintained, or slightly increased
2 | B2 | ROR1 expression was maintained, or slightly increased

Each molecule was assayed on Mec-vector (assay: Cytotoxicity in vitro (CellTiter-Glo viability), Mec-vector). Settings: read-out: EC50 (nM), cytotoxicity in vitro; Mec-vector (CLL), 72 hours.
Procedure: (§1) Cells were cultured in log phase growth and distributed into 96-well plates. Each cell line was plated at a slightly different cell density, ranging from 5×10^3 to 50×10^4 cells/well. Cells in duplicate were incubated with 3-fold serial dilution of a particular immunoconjugate (10, 3.33, 1.11, 0.37, 0.12, 0.041, 0.014, and 0.0045 μM) for 72 hours at 37° C. and 5% CO2. After treatment, cells were incubated with an equal volume of CellTiter-Glo® reagent (Promega Inc.) for 15 minutes at room temperature and viability was determined by a luminometer. Curves and EC50 values were generated in GraphPad Prism using a sigmoidal dose response non-linear regression fit.
(§2) Cells were grown and distributed into 96-well plates as described in Example 5. Cells in duplicate were incubated with 3-fold serial dilution of a particular immunoconjugate (660, 220, 73.3, 24.4, 8.14, 2.71, 0.91, and 0.3 nM) for 72 hours at 37° C. and 5% CO2. In some experiments, cells were incubated with an immunoconjugate for 96 hours instead of 72 hours (values highlighted with “*”). After treatment, cell viability was determined as described in Example 5. Cell surface ROR1 expression was assessed by quantitative flow cytometry and ROR1 expression was characterized as MFI>30 or MFI<30 (MFI: mean fluorescent intensity).
(§3) The MEC1 cell line, which is derived from B-chronic lymphocytic leukemia in prolymphocytoid transformation, was transfected with either an expression vector encoding human ROR1 or a control vector, and stable cell lines were created using selection media containing G418.

Row | Molecule | EC50 [nM]
3 | B1 | 569
4 | B2 | 30.3
5 | B3 | 535
6 | B4 | 183
7 | B5 | 296

Each molecule was assayed on Mec-ROR (assay: Cytotoxicity in vitro (CellTiter-Glo viability), Mec-ROR). Settings: read-out: EC50 (nM), cytotoxicity in vitro; Mec-ROR (CLL), 72 hours.
Procedure: as §1, §2, §3

Row | Molecule | EC50 [nM]
8 | B1 | 170
9 | B2 | 10.4
10 | B3 | 192
11 | B4 | 44.6
12 | B5 | 116

These molecules were tested on Jeko-1 (assay: Cytotoxicity in vitro (CellTiter-Glo viability), Jeko-1). Settings: not given.
Format: cell-based, human

Row | Molecule | EC50 [nM]
13 | B6 | 170

Same assay, conditions: Jeko-1 (MCL), 72 hours; read-out: EC50 (nM), cytotoxicity in vitro

Row | Molecule | EC50 [nM]
14 | B1 | 112
15 | B2 | 2.4
16 | B3 | 81.1
17 | B4 | 53.3
18 | B5 | 71.7

The molecules below were run on Mino (assay: Cytotoxicity in vitro (CellTiter-Glo viability), Mino). Settings: Mino (MCL), 72 hours.
Format: cell-based, human

Row | Molecule | EC50 [nM]
19 | B1 | 15.8
20 | B2 | 1.2
21 | B3 | 20.5
22 | B4 | 15
23 | B5 | 28

The molecules below were run on MDA-MB-468 (assay: Cytotoxicity in vitro (CellTiter-Glo viability), MDA-MB-468). Settings: read-out: EC50 (nM), cytotoxicity in vitro; MDA-MB-468 (TNBC), 72 hours.
Procedure: ROR1 binding by these conjugates was tested in cell culture to define the potency of various linker-cytotoxic agent combinations. Three different types of cancer cell lines were tested: B-lymphoma cell-lines TMD-8, HBL-1, and DOHH2; triple negative breast cancer cell lines HCC1187, MDA-MB-468, Bt549; and ovarian cancer cell lines A2008, TOV112D, JHOM1, and SKOvr3.
as §1, §2

Row | Molecule | EC50 [nM]
24 | B1 | 53.1
25 | B2 | 10.4
26 | B3 | 142
27 | B4 | 44.3
28 | B5 | 85.8

These molecules were tested on MDA-MB-231 (assay: Cytotoxicity in vitro (CellTiter-Glo viability), MDA-MB-231). Settings: MDA-MB-231 (TNBC), 72 hours.
Format: cell-based, human

Row | Molecule | EC50 [nM]
29 | B2 | 24.7
30 | B4 | 203
31 | B5 | 782

These molecules were tested on MCF-7 (assay: Cytotoxicity in vitro (CellTiter-Glo viability), MCF-7). Settings: MCF-7 (Breast), 96 hours (values marked *).
Format: cell-based, human

Row | Molecule | EC50 [nM]
32 | B3 | 232
33 | B4 | 167

Same assay, conditions: MCF-7 (ER+/PR+/HER2− Breast), 72 hours

Row | Molecule | EC50 [nM]
34 | B1 | 164
35 | B2 | 30.9
36 | B5 | 12.7

Each molecule was assayed on H460 (assay: Cytotoxicity in vitro (CellTiter-Glo viability), H460). Settings: H460 (NSCLC), 72 hours.
Format: cell-based, human

Row | Molecule | EC50 [nM]
37 | B2 | 39.6
38 | B4 | 191
39 | B5 | 365

These molecules were tested on Jeko-1 MCL xenograft (assay: Jeko-1 human MCL xenograft model (study 7)). Settings: 1 mg/kg ADC-N, ADC-P, ADC-R; 5 mg/kg ADC-A, ADC-L, ADC-M, ADC-S, ADC-T; IV Q4D.
Format: in vivo, mouse
Procedure: Jeko-1 (MCL) cells were engrafted subcutaneously into mice. When tumor size reached 100 mm^3, the mice were randomized into nine groups, 9 mice/group. The groups were vehicle control; 1 mg/kg ADC-N, ADC-P or ADC-R; or 5 mg/kg ADC-A, ADC-L, ADC-M, ADC-S, or ADC-T. The mice were dosed IV q4d.

Row | Molecule | tumor growth / average tumor size (interim results, day 14)
40 | B1 | Significant tumor regression
41 | B2 | inhibition of tumor growth
42 | B3 | Significant tumor regression
43 | B4 | inhibition of tumor growth
